Results on 22 molecules are retold here after paper PMC12136788.

The other results are listed elsewhere or left out.

First the molecules themselves.
B1: ENSG00000140939:stop:overlap|stop_codon|ENSG00000140939|stop_codon|NA|stop_codon (ssRNA)
RNA: GGGAGUUCUACAGUCCGACGAUCCGAGUCCGAAGAUUCCUGAAGGCCAGAGCUCUGACAGGCGGUGCCCCGCCCAUGCUGGAUAGGACCUGGGAUGCUGCUGGAGCUGAAUCGGAUGCCACCAAGGCUCGGUCCAGCCCAGUACAACAGAGGAUUGAGCAUCA
B2: chr10:128103381:128103482:-|CDS|ENSG00000148773|msi1|total|mutant (ssRNA)
RNA: GGGAGUUCUACAGUCCGACGAUCAACUGGCAGCAGGAGACGGCCAAGAGCACCCAGGGAAAGUGCCCAAGCCACCGAAGACCCCGCUGGCUUCAAAGACCCAGCAGCAGGUCACACUGAAGAAUCAAUGACUGAUGACAAAACCAACAGAGGAUUGAGCAUCA
B3: ENSG00000198589:be:win_1851|CDS|ENSG00000198589|bound_else_gene|NA|bound_elsewhere_windowed (ssRNA)
RNA: GGGAGUUCUACAGUCCGACGAUCCAUGCACACGCUGAAGUACUACUACUGGGCAGUGAAUCCUCAGGAUCGAAGUGGUAUCACCCCAAAAGGAUUAGAUGGACCGCGACCUAAUCAAAAAGAAAUGCUUUCUCUACGAGCAUUCAACAGAGGAUUGAGCAUCA
B4: chr1:88684422:88684524:+|5pUTR|ENSG00000065243|unk|FALSE|unique (ssRNA)
RNA: GGGAGUUCUACAGUCCGACGAUCUCGAUGAACCGGACGGAAUAAGCCGCGCCUCCAGCAGGGGCUGCGCCUCCAUGAAUCCCUAGUUGUUUUUUUUUUUUUCUUUCUCUCCCCUCUCCUCACCCCCACCCCGAGCCCCGUCCCCAACAGAGGAUUGAGCAUCA
B5: chr22:42796501:42797587:-|three_prime_utr|ENSG00000242247|control|control|control (ssRNA)
RNA: GGGAGUUCUACAGUCCGACGAUCGGAGAAAUUCCUCUUUAAAUGAACAAGUAACCACAUCUCAGGCGGCAGUGAAGUCCAGAUAGUUUUGCAGAUUGUUUUGCUACUUUUUCAUAUGGUAUAUGUUUCUGAUUUUUAAUAUUUCAACAGAGGAUUGAGCAUCA
B6: chr15:74955373:74955475:-|3pUTR|ENSG00000178718|unk|FALSE|unique (ssRNA)
RNA: GGGAGUUCUACAGUCCGACGAUCGGACAGUUUUCCUUUCUAGUUUUCUUUCCCCUGCUUCAGAGGAGCAUCUCUGAGGGUUCUAGCUCUUUUAACACCCCUUUUCCCCCUGCUGGCCCAGAGGGAGACCCAGGACUGAACUCUCAACAGAGGAUUGAGCAUCA
B7: chr5:43295829:43295944:-|CDS|ENSG00000112972|unk|total|mutant (ssRNA)
RNA: GGGAGUUCUACAGUCCGACGAUCAAUAUCCCCGCUUUAUUCUAAAGUCAAACUUUAAAAUUUCAUGGCUUAUAUGAAUUUCACCGUUUCCUUGGACUUCUCUUUCAGAGGGAAAUGAUAAAGAUUUUACCUUGAAUGAUUUUGCAACAGAGGAUUGAGCAUCA
B8: chr7:6691352:6691453:-|CDS|ENSG00000164631|unk|total|mutant (ssRNA)
RNA: GGGAGUUCUACAGUCCGACGAUCUACGAAUGUAAUGAAUGUGGAAAGUUAUUCUCCCAGUUGUCAUACCUCACUAUCCAUCACCGAACUCAUUCAGGAGUAAAACCCUAUGAAUGCCGUGAAUGUGGGAAAACCUUCUACCAGCAACAGAGGAUUGAGCAUCA
B9: chr3:31636526:31636632:+|3pUTR|ENSG00000163527|unk|FALSE|unique (ssRNA)
RNA: GGGAGUUCUACAGUCCGACGAUCCAAAAUGUGAUGAGAGCUUCUUGAACCGGUAAACUAGUACAGGUCUGAGAAAGACAUAUUAGAAGAAUCAUUAUACUUCCUUGAAUUAUAUUUAUUUUCAUGUUUCUCUAAUGCAAAGAACAACAGAGGAUUGAGCAUCA
B10: chrX:150768173:150768360:-|3pUTR|ENSG00000102181|msi1|FALSE|unique (ssRNA)
RNA: GGGAGUUCUACAGUCCGACGAUCUCCCAUCUGAUUCCAUAGGGGGCUGGGUGUGGCCUUCGGGUUGACAUGAGAAAGGUCUUUAGCAAUCAUUUCUGCACCGGAGAUGAGUUUUAUCCUGUGUUGGGGAGAGGUGCUCACCCUCAACAGAGGAUUGAGCAUCA
B11: chr1:166069298:166070240:-|three_prime_utr|ENSG00000188859|control|control|control (ssRNA)
RNA: GGGAGUUCUACAGUCCGACGAUCAGUUUCUGAGCCAAAGCAGACCUCUCGGUUUGCCAGCCUUUGCAGCCACUUUUGAAGAGUAGGGCUGCUCCUUGGGUGGUAGAACCAUAAUCCUUAGGAAAAAUCCCUUCCUCUUAGGAACAACAGAGGAUUGAGCAUCA
B12: ENSG00000198589:be:win_5301|CDS|ENSG00000198589|bound_else_gene|NA|bound_elsewhere_windowed (ssRNA)
RNA: GGGAGUUCUACAGUCCGACGAUCACCAGGCAGUAGAUCAUCUAAUGCAAAAUUGCCCUCAGUUCCAACAGUUGAUUCAGUUUCACAAGAUCCGGUUUCAAAUAUGAGUAUUACAGAGAGGCUUGAACACGCUUUGGAAAAGGCCAACAGAGGAUUGAGCAUCA
B13: chr19:582815:582998:+|CDS_3pUTR|ENSG00000172270|msi1_unk|total|mutant (ssRNA)
RNA: GGGAGUUCUACAGUCCGACGAUCUCAUACACUUCCUUCUUUUUUAAAAAAGUUGGGUUUUCUCCAUUCAGGAUUCUGUUCCUCCGGUUUUUUUCCUUCUGAAGUGUUUCACGAGAGCCCGGGAGCUGCUGCCCUGCGGCCCCGCAACAGAGGAUUGAGCAUCA
B14: chr19:51029091:51029457:-|three_prime_utr|ENSG00000186474|control|control|control (ssRNA)
RNA: GGGAGUUCUACAGUCCGACGAUCCCUUAACUUGGGUACCCCUCUGGCCCUCAGAGCACCAAUAUCUCCUCCAUCACUUCCCCUAGCUCCACUCUUGUUGGCCUGGGAACUUCUUGGAACUUUAACUCCUGCCAGCCCUUCUAACAACAGAGGAUUGAGCAUCA
B15: chr17:67075675:67075776:-|3pUTR|ENSG00000198265|unk|total|mutant (ssRNA)
RNA: GGGAGUUCUACAGUCCGACGAUCAUUCCUUAUUUCCACCGCCAGUCAAGGAUUCUAACGCUGCUUCCAUCUGAUACUCUUCUCCGAUUCUGCAUCAAAUGCUUAUUUUGACUUACAACAAGCUUACUCUUCCUCAGCAUUACACAACAGAGGAUUGAGCAUCA
B16: chrX:154436128:154436291:+|3pUTR|ENSG00000071553|msi1_unk|total|mutant (ssRNA)
RNA: GGGAGUUCUACAGUCCGACGAUCAUUCCCGGGUCUCCUUUCUCCUUAUUUAUUCUUGUGGCUACAUCAUCCCUGGCUGUGGACCGUGCUUUUGUGCCGCAAAUGCUCCCUCCUUAAGGUUACCGGGCUCCCUGAGUUUGGGAGCAACAGAGGAUUGAGCAUCA
B17: ENSG00000064393:stop:overlap|stop_codon|ENSG00000064393|stop_codon|NA|stop_codon (ssRNA)
RNA: GGGAGUUCUACAGUCCGACGAUCUCUCCCUGGAGAGUGGUUUUCCUGCUUUUCUGCUGCUAGAAAUGUUGCUGUAUGGGAGCUAGUACAAUAGAAAGUGCCCAGUGACUGCAGGCGACCCUUACCGAGGAUUUUAUUCAAGUACAACAGAGGAUUGAGCAUCA
B18: chr17:29548703:29548809:+|3pUTR|ENSG00000160551|unk|FALSE|bound_elsewhere (ssRNA)
RNA: GGGAGUUCUACAGUCCGACGAUCAGCACUUGUGAGUGAAAAAUCAUGUAAUUAUCUGUAAAUAUGUAGCUAACAAAUUGACCUAGUUUCUGUAUUUUUUUGUUUUUGUACUAAAGUUUAUAGGUCUGUGCCAGCUAGAGAGAACAACAGAGGAUUGAGCAUCA
B19: chr6:87085629:87085739:-|3pUTR|ENSG00000135346|unk|total|mutant (ssRNA)
RNA: GGGAGUUCUACAGUCCGACGAUCGUUUUACCAAGUGCUGUCUUGAUGACUGCUGAUUUUCUGGAAUGGAAAAUUAAGUUGUUCCGUGUUUAUGGCUUUGUGAGAUAAAACUCUCCUUUUCCUUACCAUACCACUUUGACACGCCAACAGAGGAUUGAGCAUCA
B20: chr5:177595998:177596040:+|3pUTR|ENSG00000184840|msi1_unk|FALSE|overlapping (ssRNA)
RNA: GGGAGUUCUACAGUCCGACGAUCCCUGAGCUGCUUCACAUGGUUGUCCAUUCUGGGGCUUAAAGAACUGGGACCAGACCAAGUAGAGGCCUUGGUGCUGGUUGGGGUGGGGCCUGCAGAGUCUUAGUUACUGAUUUCAUUUUCCAACAGAGGAUUGAGCAUCA
B21: chr15:38485071:38485172:+|3pUTR|ENSG00000171262|unk|total|mutant (ssRNA)
RNA: GGGAGUUCUACAGUCCGACGAUCUUGCCUCACCUGUAUUGCUGUGGAUGUGUUUUGUGGGUUUUUCAUUCGAUUUUACAAAACCGGGAAAGGCACUUCCAGUUGUAUUCCGCCGGCAGUUGUUGUGAAUCAUUUUUUUCUCUUCAACAGAGGAUUGAGCAUCA
B22: ENSG00000198589:be:win_2301|CDS|ENSG00000198589|bound_else_gene|NA|bound_elsewhere_windowed (ssRNA)
RNA: GGGAGUUCUACAGUCCGACGAUCGCUAGCUGAAAGGCUCAUGCUUCAGACAAAUUUAAUCACAAUGACCACAUAUAAUGUGCUGUUUGAGAUUCUUAUAGAACAGAUUGGUACUCAGGUGAUACAUAAACAGCAUCCAGAUCCCAACAGAGGAUUGAGCAUCA

The experiment deals with MSI1 full-length (mouse, UniProt Q61474 1-362). Kind of experiment: nsRBNS (natural sequence RNA bind-n-seq); RBNS binding buffer (assumed for nsRBNS): 25 mM Tris pH 7.5, 150 mM KCl, 3 mM MgCl2, 0.01% Triton X-100, 500 ug/ml BSA, 20 U/ml SUPERase-In, 4 C; UNK is unkempt and MSI1 is Musashi-1; names of the RNAs are library labels; protein concentration not given here; high values mean tight binding.
Chain of UniProt Q61474 (Q61474 whole entry): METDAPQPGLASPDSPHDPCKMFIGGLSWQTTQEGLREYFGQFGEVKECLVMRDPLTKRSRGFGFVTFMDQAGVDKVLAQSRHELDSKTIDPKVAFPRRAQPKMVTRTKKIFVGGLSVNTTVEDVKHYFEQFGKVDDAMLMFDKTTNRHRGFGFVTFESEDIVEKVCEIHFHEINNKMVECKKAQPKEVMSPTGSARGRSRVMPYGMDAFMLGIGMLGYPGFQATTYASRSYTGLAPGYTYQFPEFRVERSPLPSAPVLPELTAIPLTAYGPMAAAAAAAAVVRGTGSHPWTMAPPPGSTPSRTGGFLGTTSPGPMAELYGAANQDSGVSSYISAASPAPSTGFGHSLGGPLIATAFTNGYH
As for B1, the binding signal stood at 0.41 enrichment R. As for B2, the figure is 0.41 enrichment R; as for B3, 0.391 enrichment R. The molecule B4 yielded a binding signal of 1.95 enrichment R. In the case of B5 it was 1.45 enrichment R. Turning to B6, the binding signal is 1.16 enrichment R. As for B7, the figure is 0.344 enrichment R; as for B8, 0.294 enrichment R. As for B9, the figure is 2.07 enrichment R; as for B10, 0.563 enrichment R; as for B11, 0.442 enrichment R. In turn, B12 had a binding signal of 0.342 enrichment R. With B13, the binding signal is 0.335 enrichment R. With B14, the binding signal turned out to be 0.887 enrichment R. In the case of B15, the binding signal came to 0.844 enrichment R. On to B16, for which the binding signal turned out to be 0.523 enrichment R.

For the molecule B17, the binding signal is 0.605 enrichment R. B18 came in with a binding signal of 12 enrichment R. In the case of B19 it was 0.394 enrichment R. On to B20, for which the binding signal is 0.677 enrichment R. For B21, the binding signal is 0.279 enrichment R. B22 displayed a binding signal of 0.687 enrichment R.
